Source: PubChem BioAssay AID686979 (National Center for Advancing Translational Sciences (NCATS), 2013)
Out of some 420,000 compounds screened, about 50,000 (12%) were called active. Inconclusive means that the source gave no clear call. Such entries were picked first, then a sample of the others. Calls follow the shape of the dose curve; as a rule, active = well fitted inhibition curve with a large enough effect; inconclusive = small, poorly fitted or top-dose-only effect; inactive = flat fitted curve, though single readings scatter. Potencies of inconclusive entries are left out as doubtful fits.

Test: qHTS for Inhibitors of human tyrosyl-DNA phosphodiesterase 1 (TDP1): qHTS in cells in presence of CPT; also: nearly all actives have a fitted effect of over 55% in size
Settings: chicken DT40 Tdp1-/-;hTDP1 cells + 20 nM CPT, ATP luminescence, 48 h; activity change, negative = growth inhibition: at 46.2 µM (top of the series) unless noted
Method in brief: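 Chicken DT40 Tdp1-/- cells stably complemented with human TDP1 were seeded at 400 cells/well in medium containing 20 nM camptothecin, exposed to pin-transferred compounds, and grown at 37 °C for at least 48 hr. Viability was read as ATP luminescence.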
% is scaled to controls: 0 for no effect and ±100 for the full control effect; potency is read from the fitted curve at half-maximal effect; tags tell the direction and shape of the fitted curve.

SMILES | activity change, negative = growth inhibition | Potency
CCSC1=N/C(=C\c2ccc(-c3ccccc3[N+](=O)[O-])o2)C(=O)S1 | inactive: 3.95% | 
CCc1ccc(NS(=O)(=O)c2ccc3[nH]c4c(c3c2)CCCCCC4)cc1 |  | inconclusive [inhibitor, single point]
O=C(CCCSc1nc2ccccc2[nH]1)NCc1ccc(Cl)cc1 |  | inconclusive [inhibitor, single point]
Cc1cccc(-c2noc(CN(C(=O)c3c(-c4ccccc4Cl)noc3C)C(C)C)n2)c1 |  | active: 20.6 µM
CCOc1c(Br)ccc2c1sc1nc[nH]c(=O)c12 |  | inconclusive [inhibitor, single point]
CC(C)NC(=O)C1Cc2c(-c3ccccc3Oc3ccccc3)ccnc2O1 (configuration not stated) |  | inconclusive [inhibitor, single point]
COc1ccc(CN2CCN(C(=O)c3cccs3)CC2)cc1 | inactive: -6.55% | 
O=C(NC(Nc1nc2ccc([N+](=O)[O-])cc2s1)(C(F)(F)F)C(F)(F)F)c1ccccc1 |  | active: 0.461 µM
Cc1cccc(-n2ncc(C(=O)NCc3ccc4c(c3)OCO4)c2C2CCN(C(=O)OC(C)(C)C)CC2)c1 |  | inconclusive [inhibitor, single point]
Cc1ccc([C@H]2C[C@@H](n3cc(COC(=O)c4ccccc4)nn3)[C@H](O)CN2CC2CCCCC2)cc1 |  | inconclusive [inhibitor, single point]
CCC(C)c1ccccc1OCCOCCN1CCCC1 (configuration not stated) |  | inconclusive [inhibitor, single point]
Cc1ccc(-c2nn(CC(=O)NCC3CCCO3)c(=O)c3ccccc23)cc1 (configuration not stated) | inactive: -6.27% | 
Nc1c(-c2ccccc2)c(CSc2nc3ccccc3[nH]2)nn1-c1cccc(Cl)c1 |  | inconclusive [inhibitor, single point]
O/N=C(\c1ccc(Cl)cc1)c1cc2ccccc2o1 |  | active: 18.4 µM
Cc1sc2ncnc(NCc3cccnc3)c2c1C |  | inconclusive [inhibitor, single point]
O=C(Nc1ccccc1F)c1ccc(CN2CCN(c3ccccc3)CC2)cc1 |  | inconclusive [inhibitor, full curve, poor fit]
O=C(CSc1nc(Nc2ccc(F)c(F)c2)c2ccccc2n1)c1ccc(Cl)cc1 |  | inconclusive [inhibitor, single point]
CC(C)C(CCNC1CCN(C)CC1)c1ccc(Cl)cc1 (configuration not stated) |  | active: 4.61 µM
COc1cccc(-c2nc3n(n2)C(c2ccccc2Cl)C(C(N)=O)=C(C)N3)c1 (configuration not stated) |  | inconclusive [inhibitor, single point]
N#CC1=C(N)N(c2ccccc2)C(c2ccccc2)C1(C#N)C#N (configuration not stated) |  | active: 16.4 µM
CCCSc1nnc2n(-c3ccccc3OC)c(=O)c3c4c(sc3n12)CCC4 |  | inconclusive [inhibitor, single point]
CCOc1ncccc1C(=O)OCC(=O)c1ccc(F)cc1 |  | inconclusive [inhibitor, single point]
COCCn1c(=NC(=O)c2sc3ccccc3c2Cl)sc2cc(S(N)(=O)=O)ccc21 |  | inconclusive [inhibitor, single point]
COc1ccc2oc(C(=O)Nc3nc4ccc(S(C)(=O)=O)cc4s3)c(C)c2c1 |  | inconclusive [inhibitor, partial curve, poor fit]

SMILES | activity change, negative = growth inhibition | Potency
O=C1c2ccccc2NC2CCCCC12 (configuration not stated) |  | inconclusive [inhibitor, partial curve]
O=C(NCc1ccco1)C1CCCN1C(=O)Nc1cccc(Cl)c1 (configuration not stated) | inactive: -7.39% | 
COc1cccc(-n2c(-c3cccc(S(=O)(=O)N(C)C)c3)n[nH]c2=S)c1 | inactive: -1.97% | 
COC(=O)[C@@]1(Sc2ccc(C)cc2)CC(=O)N(C(=O)C2CC2)[C@@H]1c1ccccc1 | inactive: -24.4% | 
COc1ccc(-c2cccc(NS(=O)(=O)c3ccc(NC(C)=O)cc3)c2)nn1 |  | active: 18.4 µM
CSCCC(NS(=O)(=O)c1ccc2ccccc2c1)C(=O)OCC(=O)c1ccc(C(C)C)cc1 (configuration not stated) |  | active: 23.1 µM
CN1CCN(c2nc3c(c(=O)n(C)c(=O)n3C)n2Cc2cccc(Br)c2)CC1 | inactive: -23% | 
CCOC(=O)c1c(C2CC2)csc1NC(=O)COC(=O)CCS(=O)(=O)c1ccc(C)cc1 | inactive: 12.5% | 
CCOc1ccc(S(=O)(=O)Nc2ccc(C(=O)N/N=C(\C)c3ccc(-n4ccnc4)cc3)cc2)cc1 |  | inconclusive [inhibitor, single point]
CC(C)c1cc(N=O)cc(C(C)C)c1O | inconclusive: -31.5% [inhibitor] | 
O=C(NCc1ccccc1)C1=C[C@@H](C2CCCCC2)C[C@@H](OCCCCO)O1 |  | inconclusive [inhibitor, single point]
COc1ccc(C)cc1NC(=O)CSc1nnc(COc2ccc(C)cc2)n1Cc1ccco1 |  | inconclusive [inhibitor, single point]
O=[N+]([O-])c1ccc2c(c1)C=C/C2=C\c1ccc(C=S)cc1 |  | inconclusive [inhibitor, single point]
CCCCN(C)CCNC(=O)c1cc(-c2ccc(Cl)s2)nc2ccccc12 |  | active: 23.1 µM
CN(C(=O)CSc1ncnc2ccccc12)C1CCCCC1 | inactive: -4.8% | 
CCOc1ccccc1Nc1nc2c(S(=O)(=O)c3ccc(C)cc3)nnn2c2ccsc12 | inactive: -11.1% | 
O=S(=O)(Cc1ccccc1)NCC1CCCN(Cc2ccc3nonc3c2)C1 (configuration not stated) | inactive: 1.88% | 
CSCCOC(=O)C1=C(C)NC(=O)CC1c1ccccc1Cl (configuration not stated) |  | inconclusive [inhibitor, single point]
Cc1ccc(C)c(OC2=NS(=O)(=O)c3ccccc32)c1 |  | active: 18.4 µM
c1ccc(N2CCN(Cc3ccsc3)CC2)nc1 | inactive: 0.321% | 
O=C(CC(=O)c1cccs1)c1ccncc1 |  | active: 20.6 µM
CC(C)(C)C(=O)COC(=O)c1cc(-c2ccncc2)nc2ccccc12 | inactive: 0.829% | 
CCCCc1c(C)c2ccc(OC)c(/C(C)=N\O)c2oc1=O |  | inconclusive [inhibitor, single point]
Cc1cccc(/C(N)=N/OC(=O)N2c3ccccc3Sc3ccccc32)c1 |  | inconclusive [inhibitor, single point]

SMILES | activity change, negative = growth inhibition | Potency
CCOC(=O)c1c(-c2ccccc2)csc1NC(=O)c1nc(SCC)ncc1Cl | inactive: -9.5% | 
Cc1ccc(-c2nc3scc(CCNS(=O)(=O)c4ccc(Oc5ccccc5)cc4)n3n2)cc1 |  | inconclusive [inhibitor, single point]
COc1cc(/C=C/C(=O)OCC(=O)c2ccc(S(=O)(=O)N3CCCCC3)cc2)cc(OC)c1OC | inconclusive: -30.8% [inhibitor] | 
COc1ccc([C@H]2CC(=O)C=C(c3ccc4ccccc4c3)C2)cc1OC |  | inconclusive [inhibitor, single point]
O=Cc1sc(=O)n(Cc2cccc(C(=O)O)c2)c1Cl |  | inconclusive [inhibitor, single point]
O=C(NCc1ccco1)c1cc(S(=O)(=O)N2CCOCC2)c(Cl)cc1Cl | inactive: -17.6% | 
C#CCn1c(=NC(=O)c2cccs2)sc2cccc(OCC)c21 | inactive: -25% | 
COC(=O)CCCC[C@@H]1O[C@H](CCc2ccccc2)CC2=C1C(=O)OC(C)(C)O2 |  | inconclusive [inhibitor, single point]
C/C=C(/C)C(=O)OC1Cc2c(ccc3ccc(=O)oc23)OC1(C)C (configuration not stated) |  | inconclusive [inhibitor, single point]
CCN1CCn2c3c(c4cc(Br)ccc42)CCCC31 (configuration not stated) |  | inconclusive [inhibitor, single point]
CC[C@@H]1/C=C(\C)C[C@H](C)C[C@H](OC)[C@H]2O[C@@](O)(C(=O)C(=O)N3CCCC[C@H]3C(=O)O[C@H](/C(C)=C/[C@@H]3CC[C@@H](Cl)[C@H](OC)C3)[C@H](C)[C@@H](O)CC1=O)[C@H](C)C[C@@H]2OC |  | inconclusive [inhibitor, single point]
O=C(C[n+]1ccccc1Br)c1ccc(F)cc1 |  | inconclusive [inhibitor, partial curve, poor fit]
CCCCn1nc(C(=O)Nc2ccccc2N2CCCC2)c2ccccc2c1=O |  | inconclusive [inhibitor, single point]
Cn1c(=O)c2c(nc(SCc3nc(N)nc(N4CCCCC4)n3)n2C)n(C)c1=O |  | active: 20.6 µM
CN(C)c1nc(CN2CCCCC2c2cccnc2)nc2ccccc12 (configuration not stated) | inactive: -1.75% | 
CCn1nc(C)c(/C=N/NC(=O)Cn2cncn2)c1C | inactive: 3.51% | 
CN(C)S(=O)(=O)c1cccc(NC(=O)CO/N=C(\N)c2ccccc2)c1 | inactive: -22.1% | 
O=C(N1CCOCC1)N1CCN(c2nc(-c3ccccc3)cs2)CC1 | inactive: -25.3% | 
CCCNC(=O)c1nn2c(C(F)(F)F)cc(-c3ccccc3)nc2c1Cl |  | inconclusive [inhibitor, single point]
CSc1nnc(Cn2c(=O)sc3ccccc32)n1-c1ccccc1C |  | inconclusive [inhibitor, single point]
CCc1cccc(C)c1NC(=O)CN1C(=O)c2cccc3cccc1c23 | inactive: -14.9% | 
CCCCCNC(=O)C1CCC(Cn2c(=O)c3sccc3n(CC)c2=O)CC1 (configuration not stated) |  | inconclusive [inhibitor, single point]
Cc1cnc(C(=O)OCC(=O)Nc2cccc(C)c2C)cn1 | inactive: 17.8% | 
Cc1ccc(NC(=O)C2CCCN(C(=O)c3ccc(Cl)cc3)C2)cc1S(=O)(=O)N1CCOCC1 (configuration not stated) |  | active: 20.6 µM
